Data reported in PubChem BioAssay AID1345082 (National Center for Advancing Translational Sciences (NCATS), 2018).
Out of some 94,000 compounds screened, about 4,000 (4.3%) were called active. Inconclusive means that the source gave no clear call. Such entries were picked first, then a sample of the others. The call rests on the fitted dose curve; in most records, active means well fitted inhibition curve with a large enough effect; inconclusive means small, poorly fitted or top-dose-only effect; inactive means no such curve, though single readings can be large or run the other way. A potency beside an inconclusive call is a rough fit, not a confirmed value.
On the % scale 0 is the no-effect control and ±100 the full control effect; potency means the concentration at half of the fitted maximal effect; tags describe the fitted curve by direction and shape.

Test: Cytotoxic Profiling in NIH 3T3 Cell Line of Diverse Libraries Using Quantitative High-Throughput Screening; further: nearly all actives have a fitted effect of over 55% in size
Conditions: NIH 3T3 viability, CellTiter-Glo ATP luminescence, 48-72 h; activity change, negative = cytotoxicity: at 96.7 µM (top of the series) unless noted; series mostly up to 96.7 µM
How it was run: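 NIH 3T3 cells at 400 cells/well received 23 nL of compound by pintool and were incubated 48 or 72 h at 37 °C. Viability was read as ATP-coupled CellTiter-Glo luminescence.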
With `COc1ccc(-c2cn3cc(C(=O)NCCc4ccc(Cl)cc4)nc3s2)cc1` the “activity change, negative = cytotoxicity” value was inactive: -25.5%.
In the case of `O=C(NC1CCN(Cc2ccc(-c3ccsc3)cc2)C1)c1ccc(F)cc1` (stereo not drawn), the Potency is reported as inconclusive: 44.7 µM [inhibitor, partial curve, poor fit].
With `O=c1n(-c2ccc(F)cc2F)nc2n1CCN(Cc1cccc3ccccc13)C2` the Potency was inconclusive: 50.1 µM [inhibitor, partial curve, poor fit].
For `CCc1nc(C)c(C(=O)N2CCC3(CCCN(Cc4cccc(C)c4)C3)C2)o1` (stereo not drawn), the Potency was inconclusive: 44.7 µM [inhibitor, partial curve, poor fit].
With `c1cncc(CN2CC(N3CCc4ccccc43)C2)c1` the “activity change, negative = cytotoxicity” value was inactive: -2.09% [at 138 µM].
With `CNC(=O)[C@H]1C[C@]2(CCCCN(C)C2=O)N(C(=O)c2ccc(NC(C)=O)cc2)[C@H]1c1ccco1` the Potency was inconclusive: 50.1 µM [inhibitor, partial curve, poor fit].
For `CC(C)n1cnnc1CC1CCCN(S(=O)(=O)c2ccc3c(c2)C(C)(C)C(=O)N3)C1` (stereo not drawn), the “activity change, negative = cytotoxicity” value was inactive: -2.82%.
In the case of `CCc1nc2c(c(-c3ccc(OC)cc3)n1)CCN(C(=O)c1ccccc1)CC2`, the Potency is reported as inconclusive: 44.7 µM [inhibitor, partial curve, poor fit].
In the case of `COCCCn1c(C)cc(C(=O)N[C@@H]2CN(C)C[C@H]2CN(C)C)c1C`, the “activity change, negative = cytotoxicity” value is reported as inactive: -0.264%.
In the case of `O=C(Nc1cc(C2CC2)nn1-c1ccccc1)c1cccc(Cl)c1`, the Potency is reported as inconclusive: 100 µM [inhibitor, single point].
With `CNC(=O)N1CCC(C2CCN(C(=O)c3ccc(Br)cc3)C2)CC1` (stereo not drawn) the Potency was inconclusive: 50.1 µM [inhibitor, partial curve, poor fit].
In the case of `COc1ccc(-c2ccc3ncc(Nc4ccc(C(N)=O)cc4)n3n2)cn1`, the Potency is reported as inconclusive: 44.7 µM [inhibitor, partial curve, poor fit].
For `CCOc1ccc(CC(=O)NCCn2ccn3nc(-c4cccc(OC)c4)cc3c2=O)cc1`, the Potency was inconclusive: 50.1 µM [inhibitor, partial curve, poor fit].
With `O=C(NCCN1CCCCC1)c1ccc(-c2ccc(N3CCCCC3)nc2)cc1` the Potency was active: 20 µM.
With `COc1ccc(C(=O)N2CCC3(CC2)NC(=O)N(Cc2ccc(F)cc2)C3=O)cc1F` the Potency was inconclusive: 44.7 µM [inhibitor, partial curve, poor fit].
For `O=C(N[C@H]1CCN2C(=O)c3ccc(Cl)cc3NC(=O)[C@H]12)c1cccs1`, the Potency was active: 89.1 µM.
For `CCN1c2cc(C(=O)Nc3ccc(C)c(F)c3)ccc2C(=O)N2CCCC21` (stereo not drawn), the “activity change, negative = cytotoxicity” value was inactive: -20.3%.
With `COCc1ncc(C)n1C1CCCN(C(=O)CCn2nc(C)cc2C)C1` (stereo not drawn) the “activity change, negative = cytotoxicity” value was inactive: -28.3%.
